Results taken from the supplement of paper PMC7826260.
This is one part of the list. Cleavage of a single-stranded DNA pool by Rep nickase domains was read by sequencing at 3 µM enzyme and 37 °C for 1 h; the strands have 90 letters, of which the middle is given. A value is the log2 ratio of uncut reads to the pool without enzyme; uncut sequences lie near 0, cut ones below; no hit call is given. The scaling is to total reads; where an enzyme cuts many sequences, the uncut ones exceed 0.

What was measured:
Experiment in all cases: uncleaved DNA left, log2 of reads against the no-enzyme library (log2 ratio); higher = less cleavage (more negative = more Rep cleavage of the k-mer); sequences stand for … in CTCGTCCG…ACCGGAGA
[1] = tested on: T1, Rep nickase domain of Muscovy duck circovirus
T1 sequence (residues 1-111 of Rep, tag left off): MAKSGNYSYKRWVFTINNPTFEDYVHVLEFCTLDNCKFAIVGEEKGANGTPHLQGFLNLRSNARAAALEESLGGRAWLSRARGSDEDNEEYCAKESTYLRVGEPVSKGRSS
Experimental: (§1)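 A pool of 90-nt single-stranded DNAs with seven random bases just before the constant AC of the nick site (name = the seven bases) was cut by 3 µM recombinant His6-SUMO-tagged Rep nickase domain (300 nM DNA, 50 mM HEPES pH 8.0, 50 mM NaCl, 1 mM MnCl2, 1 h, 37 °C, three replicates). Uncut DNA was amplified and sequenced.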

[2] = tested on: T2, Rep nickase domain of banana bunchy top virus
T2 sequence (residues 1-94 of Rep, tag left off): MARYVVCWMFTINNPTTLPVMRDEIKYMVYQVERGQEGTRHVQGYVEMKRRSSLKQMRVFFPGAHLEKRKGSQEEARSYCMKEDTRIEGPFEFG
Experimental: as §1

[3] = tested on: T3, Rep nickase domain of cabbage leaf curl virus
T3 sequence (residues 1-116 of Rep, tag left off): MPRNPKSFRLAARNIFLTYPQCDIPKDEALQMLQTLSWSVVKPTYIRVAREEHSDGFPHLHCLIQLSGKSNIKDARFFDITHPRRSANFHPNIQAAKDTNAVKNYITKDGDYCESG
Experimental: as §1

[4] = tested on: T4, Rep nickase domain of chickpea chlorotic dwarf virus
T4 sequence (residues 1-124 of Rep, tag left off): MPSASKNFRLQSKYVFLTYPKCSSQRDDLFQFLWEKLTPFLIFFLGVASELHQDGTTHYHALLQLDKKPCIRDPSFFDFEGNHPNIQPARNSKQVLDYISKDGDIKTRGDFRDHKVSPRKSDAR
Experimental: as §1

[5] = tested on: T5, Rep nickase domain of faba bean necrotic yellows virus
T5 sequence (residues 1-98 of Rep, tag left off): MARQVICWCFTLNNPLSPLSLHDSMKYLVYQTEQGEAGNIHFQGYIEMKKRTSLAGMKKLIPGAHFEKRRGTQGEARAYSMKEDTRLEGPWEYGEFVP
Experimental: as §1

[6] = tested on: T6, Rep nickase domain of maize striate mosaic virus
T6 sequence (residues 1-117 of Rep, tag left off): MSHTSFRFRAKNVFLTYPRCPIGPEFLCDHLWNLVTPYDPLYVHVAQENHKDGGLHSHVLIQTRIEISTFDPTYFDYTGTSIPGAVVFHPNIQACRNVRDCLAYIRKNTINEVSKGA
Experimental: as §1

[7] = tested on: T7, Rep nickase domain of porcine circovirus 2
T7 sequence (residues 2-116 of Rep, tag left off): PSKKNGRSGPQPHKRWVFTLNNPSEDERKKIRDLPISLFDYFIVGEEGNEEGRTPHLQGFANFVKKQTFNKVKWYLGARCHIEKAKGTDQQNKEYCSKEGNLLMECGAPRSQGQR
Experimental: as §1

[8] = tested on: T8, Rep nickase domain of tomato golden mosaic virus
T8 sequence (residues 1-124 of Rep, tag left off): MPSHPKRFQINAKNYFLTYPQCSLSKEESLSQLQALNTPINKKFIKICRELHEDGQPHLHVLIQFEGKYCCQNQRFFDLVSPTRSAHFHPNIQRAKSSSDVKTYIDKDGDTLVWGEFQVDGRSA
Experimental: as §1

[9] = tested on: T9, Rep nickase domain of tomato yellow leaf curl virus
T9 sequence (residues 1-136 of Rep, tag left off): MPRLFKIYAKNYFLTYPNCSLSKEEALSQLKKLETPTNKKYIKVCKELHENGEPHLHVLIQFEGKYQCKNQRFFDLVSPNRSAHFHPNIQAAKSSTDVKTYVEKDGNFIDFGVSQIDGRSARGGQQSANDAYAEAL
Experimental: as §1

[10] = tested on: T10, Rep nickase domain of wheat dwarf virus
T10 sequence (residues 1-137 of Rep, tag left off): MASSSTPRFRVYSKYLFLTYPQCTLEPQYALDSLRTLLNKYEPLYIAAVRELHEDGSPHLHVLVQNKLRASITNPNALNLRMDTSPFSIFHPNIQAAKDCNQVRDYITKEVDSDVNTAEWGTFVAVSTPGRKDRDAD
Experimental: as §1

Sequence	uncleaved DNA left (log2) [1]	uncleaved DNA left (log2) [2]	uncleaved DNA left (log2) [3]	uncleaved DNA left (log2) [4]	uncleaved DNA left (log2) [5]	uncleaved DNA left (log2) [6]	uncleaved DNA left (log2) [7]	uncleaved DNA left (log2) [8]	uncleaved DNA left (log2) [9]	uncleaved DNA left (log2) [10]
CCGTTAC	-0.0313	-0.0912	-0.104	-1.24	0.0389	-0.378	-0.0562	-0.0654	-0.0273	-0.0883
AAGGGGG	0.132	0.00531	-0.125	0.115	0.0493	-0.489	0.284	0.19	0.00564	0.0332
ACTAGAG	0.0388	-0.0718	-0.746	-0.104	0.00188	-1.04	0.106	0.0066	-0.0123	-0.101
GGTATTC	-0.102	0.0418	0.464	1.22	-0.0469	1.79	0.0736	-0.0512	0.00835	0.083
ACCGAGT	-0.0529	-0.0196	-0.0545	0.029	0.0332	-0.665	0.00609	-0.02	0.0707	-0.192
TATTCTG	-0.526	-0.0948	-0.0952	-0.132	0.058	-0.201	-0.0165	-0.0517	-0.0651	-0.0374
AACAGTT	0.0573	0.0129	-0.66	-2.36	0.0437	-0.557	-2.76	0.0205	0.103	-0.0686
GATTTAA	0.101	0.0943	0.325	0.75	0.146	1.4	0.00449	0.207	0.161	0.14
